Results as given in PubChem BioAssay AID540317 (National Center for Advancing Translational Sciences (NCATS), 2011).
In all, about 390,000 compounds went through this assay and about 2,200 (0.56%) were called active. The shares of active, inactive and inconclusive entries below differ from those in the screen. The call rests on the fitted dose curve; in most records, active means well fitted inhibition curve with a large enough effect; inconclusive means small, poorly fitted or top-dose-only effect; inactive means no such curve, though single readings can be large or run the other way. Potencies beside an inconclusive call are fits to weak or partial responses and may not hold up.

Molecular target: Chromobox protein homolog 1 (Homo sapiens) (UniProt P83916)
Assay: HTS for Inhibitors of HP1-beta Chromodomain Interactions with Methylated Histone Tails; further: nearly all actives have a fitted effect of over 70% in size
Conditions: AlphaScreen HP1-beta / biotin-H3K9me3 peptide binding; series mostly up to 114 µM
Method in brief: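 Compound inhibition of the preformed complex between 50 nM HP1-beta and 50 nM biotinylated H3K9me3 peptide was read by AlphaScreen. Buffer was PBS pH 7.4 with 0.01% Tween-20. Incubations ran 30 min at room temperature, with 10 ug/mL donor/acceptor beads.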
Potency means the concentration at half of the fitted maximal effect; tags describe the fitted curve by direction and shape.

UniProt P83916, sequence (P83916 whole entry, looked up): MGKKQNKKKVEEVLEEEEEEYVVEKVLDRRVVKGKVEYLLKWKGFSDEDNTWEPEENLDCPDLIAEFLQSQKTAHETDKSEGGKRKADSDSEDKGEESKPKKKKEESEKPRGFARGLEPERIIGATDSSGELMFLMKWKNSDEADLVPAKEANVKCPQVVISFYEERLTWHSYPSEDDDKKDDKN

Structure (SMILES) | Potency
Cc1ccc(S(=O)(=O)Nc2cc3c(C(=O)Nc4ccccc4)c(C)oc3c3ccccc23)cc1 | inconclusive: 44.7 µM [inhibitor, partial curve]
O=c1c2sc3ccccc3c2n(Cc2ccc(Cl)cc2)c(=O)n1Cc1ccco1 | inactive
CC1=C(C(N)=O)C(c2ccccn2)n2nc(SCc3ccccc3)nc2N1 (stereo not given) | inactive
CNc1nc(-c2ccc3c(c2)CCN3C(=O)c2ccccc2C)cs1 | inconclusive: 28.2 µM [inhibitor, full curve]
O=[N+]([O-])c1ccccc1C1Nc2cccc3cccc(c23)N1 | inconclusive: 28.2 µM [inhibitor, partial curve, poor fit]
Cn1c(=O)c(Nc2ccc(O)cc2)c2c3c(cccc31)C(=O)c1ccccc1-2 | active: 17.8 µM
CC1(C)OC(=O)C(=CNc2cccc(O)c2)C(=O)O1 | inactive
CCOC(=O)c1cc(OC(=O)c2cc(OC)cc(OC)c2)n(-c2ccccc2)n1 | inactive
O=S(=O)(c1ccccc1)N1CCC(N2CCCCCC2)CC1 | inconclusive: 70.8 µM [inhibitor, partial curve, poor fit]
C/C=C/C=C/C(=O)Nc1nccs1 | inactive
CCOC(=O)c1c(NC(=O)C2(C)Cc3ccccc3C(=O)O2)sc2c1CCCC2 (stereo not given) | inconclusive: 39.8 µM [inhibitor, single point]
Cc1cc2c(cc1C)NC(C)CC(=O)N2 (stereo not given) | inactive
CCOC(=O)N/N=C/C=C/c1ccccc1 | inconclusive: 25.1 µM [inhibitor, single point]
CC(=O)c1ccc(NC(=O)c2ccc3nc(-c4ccco4)c(-c4ccco4)nc3c2)cc1 | active: 8.91 µM
O=C(NC(=S)Nc1ccc(NC(=O)c2cccs2)cc1)c1ccco1 | inconclusive: 39.8 µM [inhibitor, single point]
Cc1cc(/C=C(\C#N)C(N)=O)c(C)n1-c1ccc(N2CCOCC2)c([N+](=O)[O-])c1 | inconclusive: 50.1 µM [inhibitor, partial curve]
COc1ccc(NC(=O)c2cccs2)cc1 | inactive
S=C(Nc1ccc(Nc2ccccc2)cc1)NC1CCCCCC1 | inconclusive: 17.8 µM [inhibitor, partial curve]
CCOC(=O)c1c(/N=C/c2cc(C)ccc2O)sc2c1CCN(C)C2 | inconclusive: 56.2 µM [inhibitor, single point]
CCC(=O)Oc1ccc2c(c1)O/C(=C\c1ccco1)C2=O | inconclusive: 35.5 µM [inhibitor, partial curve]
Cc1cc(=O)n2nc(N3CCC(C(=O)NCc4cccc(Br)c4)CC3)sc2n1 | inactive
CC/C(=N\NC(=O)c1ccc(CN(C)S(=O)(=O)c2ccc(C)cc2)cc1)c1ccc(OC(F)F)cc1 | inactive
Oc1ccc(-c2cn3c(n2)SCC3)cc1O | inconclusive: 15.8 µM [inhibitor, single point]

Structure (SMILES) | Potency
CCc1ccccc1NC(=O)CN(C)Cc1c(O)ccc2ccccc12 | inconclusive: 50.1 µM [inhibitor, partial curve]
CCOC(=O)c1ccc(N2N=C(C)/C(=C/C=C/c3ccco3)C2=O)cc1 | inconclusive: 3.55 µM [inhibitor, full curve]
CCn1c2ccccc2c2cc(NC(=O)C(=O)N3CCOCC3)ccc21 | inconclusive: 35.5 µM [inhibitor, full curve]
CCOc1ccc(N(CC(=O)NCc2ccccc2)C(=O)Cn2nnc(-c3ccc(C)o3)n2)cc1 | inconclusive: 79.4 µM [inhibitor, partial curve, poor fit]
O=S(=O)(Nc1ccc(-n2cccc2)cc1)c1ccccc1 | inconclusive: 79.4 µM [inhibitor, single point]
Cc1ccc(NCc2cccnc2)c(Br)c1 | inconclusive: 31.6 µM [inhibitor, partial curve]
CC1CCN(S(=O)(=O)c2ccc(C(=O)N3CCCC3C(=O)O)cc2)CC1 (stereo not given) | inactive
Fc1ccc(N2CCN(c3nnnn3-c3ccccc3)CC2)cc1 | inactive
CCN(CC)S(=O)(=O)c1ccc(N2CCOCC2)c(NS(=O)(=O)c2cc(C(C)(C)C)ccc2C)c1 | inconclusive: 31.6 µM [inhibitor, partial curve, poor fit]
CCOc1cccc(C(=O)NC(=S)Nc2ccccc2)c1 | inconclusive: 22.4 µM [inhibitor, single point]
COc1ccccc1NS(=O)(=O)c1cc([N+](=O)[O-])ccc1N/N=C/c1sc(N2CCOCC2)nc1-c1ccccc1 | inconclusive: 39.8 µM [inhibitor, single point]
CN(C(=O)c1ccc(NC(=O)Cc2cccc(NC(=O)C3CCCN(C(=O)C4CCCC4)C3)c2)cc1)C1CCCC1 (stereo not given) | inactive
O=C(CSc1nccn1-c1ccccc1)c1ccc(Br)cc1 | inconclusive: 28.2 µM [inhibitor, single point]
Oc1c(/C=C/C=C/C=Nc2ccccc2)sc(=S)n1Cc1ccccc1 | inconclusive: 2.24 µM [inhibitor, full curve, poor fit]
CCc1ccc(NC(=O)CSC2=Nc3ccccc3C3=NC(CC(=O)NCc4cccs4)C(=O)N23)cc1 (stereo not given) | inactive
CC#CCN1c2ccccc2[C@]23C[C@@H](C(=O)OC)N(C(=O)c4ccco4)C2=NC(C(=O)OC)=C(C(=O)OC)[C@H]13 | inactive
COc1cc2c(cc1OC)CN(Cc1cc(OC)c(O)c(OC)c1)CC2 | inactive
O=[N+]([O-])c1ccccc1OCCNCc1ccccc1 | inconclusive: 17.8 µM [inhibitor, full curve]
CCN(CC)c1ccc(C2Nc3cccc4cccc(c34)N2)cc1 | inconclusive: 15.8 µM [inhibitor, full curve]
CC(=NC(C)C)C1=C(O)C(C)OC1=O (stereo not given) | inactive
Cc1cccn2c(=O)c3cc(C(=O)NCCN4CCOCC4)c(=N)n(CCCN4CCOCC4)c3nc12 | inconclusive: 70.8 µM [inhibitor, partial curve, poor fit]
O=[N+]([O-])c1ccc2c(c1)-c1ccccc1C2=NO | inconclusive: 39.8 µM [inhibitor, partial curve]
